Data reported in the supplement of paper PMC11417369.
± gives the standard deviation of the averaged measurements. The list shows a part of the results.

Tested on: PfAP2-LT AP2 domain (GST-tagged)
Assay: gcPBM binding intensity (ln(normalized median fluorescence intensity)); higher = stronger DNA binding
Method in brief: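 In this array assay, P. falciparum DNA-binding domains with a GST tag, expressed in E. coli, were applied for 1 h to primer-extended double-stranded 36-bp intergenic genomic probes and negative controls on an Agilent 4 × 180k array. Bound protein was visualised with Alexa488 anti-GST antibody at 488 nm. Binding intensity is the highest Masliner-normalised natural-log median intensity across replicate spots of either probe orientation.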

Sequence | gcPBM binding intensity (ln)
GTGTTAATTTTAAATTGTACAAAATTTATATGATTT [XGTACX_site348] | 8.53 ± 0.35
GAAAAGCATAGATGCACACATATATATATATATATA [CACACA_site2169] | 10.18 ± 0.014
AAAATATATGAAAACAGTACATATAAAAATTAAAAA [XGTACX_site2594] | 8.75 ± 0.64
TTACACATATATATAAATATATATAAATATATATAT [CACACA_negctrl_site150] | 8.63 ± 0.35
ATATACTTTTTTTTTTTTTTTTTAACGTTATTTATG [CACACA_negctrl_site1277] | 8.79 ± 0.53
ATTTTTATACGTTTTTTTTTTTTTTTTTTTTATTTA [CACACA_negctrl_site1142] | 8.65 ± 0.61
ATTAATTTTGGTTCATGTACATAAGAAATAAACTCT [XGTACX_site4534] | 8.66 ± 0.35
TATAACATAATATAGACACACACATGTACTTATGCC [CACACA_site8547] | 9.4 ± 0.34
CACTACATTATGTCATAAATGCATACATAAACATAT [GTGCAC_negctrl_site513] | 8.85 ± 0.43
TTTATATTTCAATTTTGTGCTTCGCAAATTGAGAGG [TGCATGCA_negctrl_site327] | 8.29 ± 0.38
TTTTAACAAAAAAAAAGAAAAGAAAAGAAAATAATA [XGTACX_negctrl_site530] | 8.29 ± 0.52
TTAACTCTGGAGAAAAGTACATAGTATCTGGTAACA [XGTACX_site4941] | 8.63 ± 0.49
TATCCATATTTGTTCACACACACACCGATTTATATA [CACACA_site5888] | 9.69 ± 0.33
CAAAAAACAACAGATCGTACAAAATATTATATATAT [XGTACX_site2285] | 8.97 ± 0.38
TTGAAAAATGAGCACACACACAAATACATACATATT [CACACA_site3231] | 9.81 ± 0.23
ATTATAAAAATATATTGTACACAAAAATGTTTATAT [XGTACX_site5066] | 8.55 ± 0.42
CCAAATTTATTTTGTAGTACTCCGTATAGATCAACA [XGTACX_site7945] | 8.59 ± 0.33
TGAGATATAAAAATATGTACTTATGTATAAATATTT [XGTACX_site7746] | 8.64 ± 0.46
AAGTTTTTTTTTAACACACACATAATAAAATAAATA [CACACA_site446] | 8.93 ± 0.46
TATATTTATATCCACTTCGTTTAACGCACAGATATA [CACACA_negctrl_site954] | 8.79 ± 0.49
ATGTTACACCGACACACACACATAAAAAAACAAAAA [CACACA_site5750] | 9.61 ± 0.42
AAATTATATATATTACGTACATAGAACTTTACAGAA [XGTACX_site6646] | 8.61 ± 0.43

Sequence | gcPBM binding intensity (ln)
ATATACTATATTTTAACACACAAAAAAAAAAAATAT [CACACA_site1091] | 8.81 ± 0.54
TGGACAATTGTTTATTGTACTTAAATTTTATGTTCT [XGTACX_site8974] | 8.57 ± 0.57
AAGAAATAAAAAGAATGTACACAATATGTATTATAA [XGTACX_site4733] | 8.8 ± 0.47
AGCATTTTAAGTTATACACACATTTTGAATCTATAT [CACACA_site7599] | 9.01 ± 0.42
ATAAATAAATAAATAAATAAATATACATATACATAT [CACACA_negctrl_site205] | 8.72 ± 0.47
ATATTTTTTAATTTTACACACCATATAAAATAATTC [CACACA_site7339] | 8.71 ± 0.39
AAATATATTATATGTACACACAAAATTAAGGGATAT [CACACA_site1375] | 9.27 ± 0.43
ATCAATACTTTTTTGGGTACATAAATATATATATAT [XGTACX_site8436] | 8.83 ± 0.34
AACTAATTCATGTTATATTAGATAAAAAAAAAAAAA [TGCATGCA_negctrl_site340] | 8.38 ± 0.46
TTTTTTTTGTTCATTGTGCACATTGCTTGCATGGAA [GTGCAC_site9693] | 8.82 ± 0.51
AAAATAATAAATAAATGTACATATATATATATATAT [XGTACX_site3078] | 9.71 ± 0.12
ATAAGATTATACAATTGTACGTTGTTCAAGATAAGG [XGTACX_site191] | 8.8 ± 0.42
GTGTTTGAAAATAAAGCATGCAAATATATTTGAAAT [TGCATGCA_site386] | 9.04 ± 0.38
ATAATATATTTATAATGTACAAACCATTTGTATTAA [XGTACX_site4370] | 8.6 ± 0.45
TCTAACATATAATATTCACACACATATATATATTAT [CACACA_site8236] | 9.21 ± 0.43
ATTATTATTATATTTTGTACATATGTAACAATATAT [XGTACX_site5780] | 8.88 ± 0.43
CATTAAAATTGAGAGATGCACTTTTTAAGACCTTGT | 8.46 ± 0.3
AAAAAAAATTAAATAAATAAATATACACATATATAT [GTGCAC_negctrl_site394] | 8.57 ± 0.5
AAAACATTGTTTATGTGTACATAATTATATTTACAA [XGTACX_site6926] | 8.7 ± 0.52
TTTTTTTTTTTTTTTTTTTTACCCCTTTTTCAAAAA [CACACA_negctrl_site1524] | 8.01 ± 0.48
TAAATATGTGTATGTAGTACATAGTGTTTTTTTTTT [XGTACX_site3748] | 8.7 ± 0.38
ATATTATGAATTGTCACACATATATTTAAAAATGTA [CACACA_site4852] | 8.49 ± 0.38

Sequence | gcPBM binding intensity (ln)
TGCATATTACTTTTTCACATAAAAATGATCCGATTA [GTGCAC_negctrl_site526] | 8.46 ± 0.46
AAAAAATGACTTAATATGAGCATATATTATGTTGTT [CACACA_negctrl_site1609] | 8.71 ± 0.42
AAAATATAAAAATGAAGTACAAAAAAAAAAAAAAAA [XGTACX_site8132] | 8.77 ± 0.51
GTTATACACATCAACACACACATACAACGTGGTGTA [CACACA_site6677] | 9.22 ± 0.37
TTATAATGAAATATATTCTTATTCTTTTTTTTTTTT [GTGCAC_negctrl_site384] | 8.11 ± 0.72
TTTTTTTTTTTTCATTGTACTCTTAAAAATTCAACT [XGTACX_site3154] | 8.49 ± 0.42
TAAAATGTACAGGACGCACACACATATATATATATA [CACACA_site3673] | 9.92 ± 0.42
AACAACAACTAATATGCACACATTTAAAAACAAAAT [CACACA_site2440] | 9.18 ± 0.38
ATTAAAATTTAAAATACACACACATATATATAATAT [CACACA_site8612] | 9.28 ± 0.29
TATTTTTTTTTTTTTTTACACACTATAGGGAAAAAA [CACACA_site8583] | 8.42 ± 0.34
AAACCTTTACATCGTTTGCACTATATTGATATGTGT [GTGCAC_site9686] | 9.26 ± 0.42
CATACATACATACATACACACACATATATATATATA [CACACA_site8593] | 9.87 ± 0.59
CTTCCTATATTTTACTGTACTTTTTTTTTTTTTTTT [XGTACX_site4016] | 8.96 ± 0.61
TTTTTTAACAAAAATAAAACATAACTGAATTAAAAG [GTGCAC_negctrl_site244] | 8.24 ± 0.48
ACGAATTAAATTTGCTGTACCAAAAAGAAAACAATA [XGTACX_site5511] | 8.78 ± 0.54
GCTTCTTAATATCATACACACATAGATATATTTATA [CACACA_site5676] | 8.94 ± 0.41
GGAGACTTTGTATTGGGTACGTATTTCAATGCATGT [XGTACX_site1596] | 8.96 ± 0.35
AACAAATGTTAAATGTTTAAGGAGAAAATAAAGACA [CACACA_negctrl_site1163] | 8.73 ± 0.47
GAAAACATAAAAATATGTACTTAAAATATATTTTGT [XGTACX_site868] | 8.66 ± 0.41
AAAACGAAACATCTGTGTATAAGTCTATATTATTAT [XGTACX_negctrl_site301] | 8.85 ± 0.38
TTTATGTGTATTAAGTGTACACATATAGTGTATTTT [XGTACX_site999] | 8.91 ± 0.49
ATATATAAGGAAAAAAGTACTTATATTTTTTTTTTG [XGTACX_site1909] | 8.39 ± 0.49

Sequence | gcPBM binding intensity (ln)
AAATAAAGCATGTGCTGTACAAACGAAATATTTAAG [XGTACX_site3146] | 9.05 ± 0.54
TGTCATGATACATACACACACATACCCATACCCATA [CACACA_site5211] | 9.74 ± 0.26
ATATTTATATATAGTAGTACTTTCAATAATTTAAAT [XGTACX_site7276] | 8.46 ± 0.33
AATACAAGAACTGACACACATACATACTACATTTTA [CACACA_site2829] | 9.25 ± 0.45
TCTTAAAATATATAGGTGCAAAAAAAAAAAAAAAAA | 8.48 ± 0.43
TATGATATTTATATGCGTACTGAAGTATGCCTATTT [XGTACX_site6133] | 9.12 ± 0.48
AAAAAATTAAAAATACGTACATATATACATATATAT [XGTACX_site4621] | 8.74 ± 0.4
AAAGAAAGAAGACACACACACATATATAAATATCAA [CACACA_site7715] | 9.88 ± 0.23
ATCAGTGATTAGGTTATATATAAAAATGAACTAATA [GTGCAC_negctrl_site647] | 8.65 ± 0.49
ATATTCATGTTGATATGTACTTATTCTATATTGAAT [XGTACX_site8347] | 8.81 ± 0.31
TATATATATATATATATACACACTTGTGCAGAATAT [CACACA_site2216] | 10 ± 0.18
AGATTAAAATAATATAAACACACATATACTTTTTTC [CACACA_site8085] | 8.77 ± 0.45
ATAATTAAAAAAAATTGTACATATAAATAGAAGATT [XGTACX_site230] | 8.76 ± 0.45
AAAAAAAAAAGAATAGCACACACACCGATATAAATA [CACACA_site8111] | 9.71 ± 0.37
TAGGTATGCTCTCAATGTACATAAAATAATTTTACT [XGTACX_site6556] | 8.64 ± 0.38
TGTTTTTATTTATTCTGTACTGAAGAGAGTTATATA [XGTACX_site8859] | 8.53 ± 0.42
TTTAAATACAGACATACACACATACACCCACATATA [CACACA_site8078] | 9.61 ± 0.15
TAAGAAATAAATAGTACACACATAGACACAGACACA [CACACA_site4934] | 9.65 ± 0.29
GTATATGAGAAAAAAAGTACATGCACAAAATGTATA [XGTACX_site6441] | 9 ± 0.49
ATATAAATTTTTTATGAACACACAAATACAGACACT [CACACA_site8848] | 9.06 ± 0.26
GATATTCTATAAAAAAGTACAAATATTTTAAAAAAT [XGTACX_site2177] | 8.48 ± 0.49
AGCATTAATTATTTCACACATATATATATATATATA [CACACA_site4889] | 9.58 ± 0.11
